# Laboratory results taken from the supplement of paper PMC8813932.
# Structures can show the parent of a compound that is named as a salt. ± gives the standard deviation of the averaged measurements. Some of the results follow. Repeats are few or missing, and single values can be far off.
# How the values were obtained:
# Assay in all cases: log2 surviving fraction relative to plate median (drug vs vehicle, or drug+dl922-947 vs dl922-947 alone); ovarian cancer lines: OVCAR4 is platinum-sensitive while Ov4Cis resists cisplatin and Ov4Carbo carboplatin; higher = more cell survival
# Conditions in all cases: compound concentration: 10 uM, 192 h
# OVCAR4 = system: OVCAR4
# Ov4Carbo = system: Ov4Carbo
# Ov4Cis = system: Ov4Cis
# [1] = dl922-947 oncolytic adenovirus co-treatment: MOI 10
# [2] = dl922-947 oncolytic adenovirus co-treatment: none
SMILES,log2 surviving fraction (OVCAR4; [1]),log2 surviving fraction (OVCAR4; [2]),log2 surviving fraction (Ov4Carbo; [1]),log2 surviving fraction (Ov4Carbo; [2]),log2 surviving fraction (Ov4Cis; [1]),log2 surviving fraction (Ov4Cis; [2])
c1ccc([C@H]2CN3CCSC3=N2)cc1 [Levamisole Hydrochloride (Ergamisol)],0.309 ± 0.39,0.872 ± 0.35,-0.906,0.25,0.124,0.6
C[C@H]1c2cccc(O)c2C(=O)C2=C(O)[C@]3(O)C(=O)C(C(N)=O)=C(O)[C@@H](N(C)C)[C@@H]3[C@@H](O)[C@@H]21 [Doxycycline HCl],-0.0169 ± 0.2,0.00425 ± 0.92,-0.516,0.000826,0.0233,-0.702
c1ccc(C2CN3CCSC3=N2)cc1 (stereo not given) [Tetramisole HCl],0.331 ± 0.47,0.106 ± 1.6,0.534,-0.222,0.734,-2.12
COCCOC(=O)C1=C(C)NC(C)=C(C(=O)OC/C=C/c2ccccc2)C1c1cccc([N+](=O)[O-])c1 (stereo not given) [Cilnidipine],-2.96 ± 4.7,-0.98 ± 1.2,-2.07,-1.52,-0.00237,0.0267
NS(=O)(=O)c1cc2c(cc1Cl)NC(C(Cl)Cl)NS2(=O)=O (stereo not given) [Trichlormethiazide (Achletin)],0.97 ± 0.22,0.309 ± 0.049,0.572,0.457,0.283,0.319
CCN(CC)CC#CCOC(=O)C(O)(c1ccccc1)C1CCCCC1 (stereo not given) [Oxybutynin chloride],-0.291 ± 0.089,-0.325 ± 0.28,-0.379,0.0698,0.207,-1.6
[O-][n+]1cccc(CO)c1 [Mepiroxol],0.471 ± 0.41,0.152 ± 0.21,1.01,-0.0621,0.708,0.072
CC[C@H](C)C(=O)O[C@H]1C[C@@H](C)C=C2C=C[C@H](C)[C@H](CC[C@@H]3C[C@@H](O)CC(=O)O3)[C@H]21 [Lovastatin (Mevacor)],0.186 ± 0.16,-1.81 ± 0.8,-1.27,-3.26,-0.325,-0.62
C[C@H]1O[C@H](O[C@H]2[C@H](O)[C@@H](O)[C@@H](O[C@H]3[C@H](O)[C@@H](O)C(O)O[C@@H]3CO)O[C@@H]2CO)[C@H](O)[C@@H](O)[C@@H]1N[C@H]1C=C(CO)[C@@H](O)[C@H](O)[C@H]1O (stereo not given in full) [Acarbose],1.37 ± 0.34,2.36 ± 0.56,1.05,3.15,1.6,2.5
O=C(O)Cc1cc(I)c(Oc2ccc(O)c(I)c2)c(I)c1 [Tiratricol],-0.204 ± 0.38,-1.06 ± 0.22,-0.322,-1.1,-0.485,-1.24
CC1(C)S[C@@H]2[C@H](NC(=O)[C@H](N)c3ccccc3)C(=O)N2[C@H]1C(=O)O [Ampicillin sodium],-0.465 ± 0.15,-0.434 ± 0.037,-0.344,-0.74,-0.0781,-0.0774
C[N+]1(C)[C@@H]2C[C@@H](OC(=O)C(O)(c3cccs3)c3cccs3)C[C@H]1[C@@H]1O[C@@H]12 [Tiotropium Bromide hydrate],-0.174 ± 0.25,0.331 ± 0.62,1.14,0.0226,-0.377,0.612
CC(C)C[C@H](NC(=O)[C@H](CCc1ccccc1)NC(=O)CN1CCOCC1)C(=O)N[C@@H](Cc1ccccc1)C(=O)N[C@@H](CC(C)C)C(=O)[C@@]1(C)CO1 [Carfilzomib (PR-171)],-10.4 ± 1.3,-12.3 ± 7,-8.58,-12.3,-10.1,-16.2
Clc1ccc(COC(Cn2ccnc2)c2ccc(Cl)cc2Cl)c(Cl)c1 (stereo not given) [Miconazole nitrate],-0.928 ± 0.097,-1.76 ± 0.84,-1.26,-2.57,-1.85,-0.579
CC(O)(P(=O)(O)O)P(=O)(O)O [Etidronate (Didronel)],0.177 ± 0.51,-0.277 ± 0.74,0.241,0.476,0.042,-0.0282
CCCc1nc2c(C)cc(-c3nc4ccccc4n3C)cc2n1Cc1ccc(-c2ccccc2C(=O)O)cc1 [Telmisartan (Micardis)],-0.38 ± 0.68,-0.377 ± 0.47,-0.179,1.13,0.179,-0.755
CC(=O)Oc1ccccc1C(=O)O [Aspirin (Acetylsalicylic acid)],-0.988 ± 0.3,-1.01 ± 0.29,-0.648,0.338,-1.15,-3.11
[I-].[K+] [Potassium iodide],-0.78 ± 0.48,-0.334 ± 0.46,0.233,0.671,-0.593,-0.258
CCn1cc(C(=O)O)c(=O)c2ccc(C)nc21 [Nalidixic acid (NegGram)],-0.313 ± 0.45,-0.53 ± 0.6,1.16,0.404,0.365,-0.13
CC[C@@H]1/C=C(\C)C[C@H](C)C[C@H](OC)[C@H]2O[C@@](O)(C(=O)C(=O)N3CCCC[C@H]3C(=O)O[C@H](/C(C)=C/[C@@H]3CC[C@H](Cl)[C@H](OC)C3)[C@H](C)[C@@H](O)CC1=O)[C@H](C)C[C@@H]2OC [Pimecrolimus],0.067 ± 0.47,-2.61 ± 0.65,-0.801,-4.74,-1.77,-3.38
CC[C@H]1OC(=O)[C@H](C)[C@@H](O[C@H]2C[C@@](C)(OC)[C@@H](O)[C@H](C)O2)[C@H](C)[C@@H](O[C@@H]2O[C@H](C)C[C@H](N(C)C)[C@H]2O)[C@](C)(O)C[C@@H](C)/C(=N\OCOCCOC)[C@H](C)[C@@H](O)[C@]1(C)O [Roxithromycin (Roxl-150)],0.0137 ± 0.078,0.0199 ± 0.68,-1,-0.376,0.321,0.0738
C#C[C@]1(O)CC[C@H]2[C@@H]3CCC4=CC(=O)CC[C@@H]4[C@H]3CC[C@@]21C [norethindrone],0.535 ± 0.24,-0.486 ± 0.1,-0.0089,1.37,0.839,0.598
CN(C)CCCN1c2ccccc2Sc2ccc(Cl)cc21 [Chlorpromazine (Sonazine)],-1.81 ± 0.74,-1.68 ± 0.063,-3.21,-0.711,-3.18,-1.34

SMILES,log2 surviving fraction (OVCAR4; [1]),log2 surviving fraction (OVCAR4; [2]),log2 surviving fraction (Ov4Carbo; [1]),log2 surviving fraction (Ov4Carbo; [2]),log2 surviving fraction (Ov4Cis; [1]),log2 surviving fraction (Ov4Cis; [2])
CNC1CCCN(c2c(F)cc3c(=O)c(C(=O)O)cn(C4CC4)c3c2OC)C1 (stereo not given) [Balofloxacin],0.676 ± 0.59,1.03 ± 0.56,-1.03,0.492,0.55,1.27
O=C1O[C@H]([C@@H](O)CO)C(O)=C1O [Vitamin C (Ascorbic acid)],0.891 ± 0.011,0.21 ± 0.64,-0.995,0.603,0.316,0.567
Nc1ccn([C@@H]2O[C@H](CO)[C@@H](O)C2(F)F)c(=O)n1 [Gemcitabine (Gemzar)],-6.26 ± 0.57,-7.15 ± 2.5,-6.1,-10.4,-5.77,-8.38
O=C(O)Cc1ccccc1Nc1c(Cl)cccc1Cl [Diclofenac],-0.56 ± 0.046,-0.759 ± 1.3,1.41,0.51,0.429,0.0905
CN(C)[C@@H]1C(O)=C(C(N)=O)C(=O)[C@@]2(O)C(O)=C3C(=O)c4c(O)ccc(Cl)c4[C@@](C)(O)[C@H]3C[C@@H]12 [Chlortetracycline HCl],0.529 ± 0.24,0.448 ± 0.12,0.862,0.00198,0.0943,0.454
CCn1cc(C(=O)O)c(=O)c2cc(F)c(N3CCNC(C)C3)c(F)c21 (stereo not given) [Lomefloxacin hydrochloride (Maxaquin)],-1.22 ± 0.33,-0.534 ± 0.68,0.347,-0.0861,-0.751,-0.465
O=c1c(-c2ccc(O)cc2)coc2cc(O)cc(O)c12 [Genistein],-0.619 ± 0.88,-0.144 ± 0.64,-1.39,-0.799,-1.24,-1.21
O=c1cc[nH]c(=S)[nH]1 [2-Thiouracil],0.243 ± 0.47,-0.183 ± 1.3,-0.0325,0.534,-1.17,-1.94
C[C@]12CCC(=O)C=C1C=C[C@@H]1[C@@H]2CC[C@@]2(C)[C@H]1CC[C@@]2(O)CCC(=O)O [Potassium Canrenoate],-0.478 ± 0.018,-0.739 ± 0.32,-0.448,-0.337,0.0819,0.213
N=C(N)NC(=O)c1nc(Cl)c(N)nc1N [Amiloride hydrochloride (Midamor)],0.679 ± 0.22,-0.263 ± 0.58,0.0937,0.0246,-0.383,-0.607
COc1cc(Nc2c(C#N)cnc3cc(OCCCN4CCN(C)CC4)c(OC)cc23)c(Cl)cc1Cl [Bosutinib (SKI-606)],-0.783 ± 1.6,-1.15 ± 9,0.779,-13.9,-6.99,-3.15
C[C@H](CCC(=O)O)[C@H]1CC[C@H]2[C@@H]3[C@@H](O)C[C@@H]4C[C@H](O)CC[C@]4(C)[C@H]3CC[C@]12C [Ursodiol (Actigal Urso)],-0.251 ± 0.043,0.598 ± 0.39,2.75,0.804,1,0.8
C#C[C@]1(OC(C)=O)CC[C@H]2[C@@H]3CCC4=C[C@@H](OC(C)=O)CC[C@@H]4[C@H]3CC[C@@]21C [Ethynodiol diacetate],0.0378 ± 0.51,-0.579 ± 0.57,0.377,-0.939,0.0363,-0.0201
Cc1nc2c([nH]1)-c1ccccc1N(C(=O)c1ccc(NC(=O)c3ccccc3-c3ccccc3)cc1)CC2 [Conivaptan HCl (Vaprisol)],-1.42 ± 0.49,-1.54 ± 0.14,-1.2,-2.58,-1.58,-0.677
O=C(NCCN1CCOCC1)c1ccc(Cl)cc1 [Moclobemide],-0.332 ± 0.48,-0.697 ± 0.29,-0.317,-0.738,0.353,-0.39
CCc1nc(N)nc(N)c1-c1ccc(Cl)cc1 [Pyrimethamine],-0.588 ± 0.23,-2.94 ± 2.1,-0.217,-1.08,0.188,-1.49
Cc1cccc(C(C)c2c[nH]cn2)c1C (stereo not given) [Medetomidine HCl],0.193 ± 0.067,0.665 ± 0.038,-0.823,1.14,0.979,0.265
CN/C(=N\CCSCc1nc[nH]c1C)NC#N [Cimetidine (Tagamet)],-0.28 ± 0.61,0.158 ± 0.24,0.339,-1.51,0.485,0.563
Nc1nc(=O)c2c([nH]1)NCC(CNc1ccc(C(=O)N[C@@H](CCC(=O)O)C(=O)O)cc1)N2C=O (stereo not given in full) [Leucovorin Calcium],0.918 ± 0.28,-0.526 ± 3,0.745,2.26,0.684,0.384
CC(C)(CO)[C@@H](O)C(=O)NCCC(=O)O [Pantothenic acid (pantothenate)],-0.658 ± 0.16,-0.126 ± 0.25,0.0285,1.79,-0.741,-0.366
CC(=O)OCC[N+](C)(C)C [Acetylcholine chloride],0.532 ± 0.38,0.278 ± 0.021,1.46,0.427,0.528,0.27
CNCCC(Oc1ccc(C(F)(F)F)cc1)c1ccccc1 (stereo not given) [Fluoxetine  HCl],-3.25 ± 2.3,-1.38 ± 0.14,-5.94,-3.23,-4.99,-2.21
